Measurements: patent US4225579A, “Means and method for improving defenses against caries” (priority 1979, dated 1980)
At least one peptide structure holds a part that was inferred or is arguable (an end, a ring closure or a residue). Some entries repeat one wording, which the source may state once for all of them. Residues, ends and D or L forms follow the SMILES beside them.

System: salivary sediment
Test: pH fall and rise with individual peptides of 2-4 amino acid units in salivary sediment-glucose mixture
Type: cell-based
Conditions: salivary sediment 16.7% (v/v), glucose 2.8 mM, peptide 3.3 mM; for pH rising to: measured through the fourth hour; for pH drop to: pH starts slightly above 7
Protocol: Four sets of three 10×75 mm test tubes were provided with 0.2 ml of 8.4 mM (millimolar) of aqueous glucose solution. Set I was provided with 0.2 ml of pooled supernatant saliva. […] Set IV was provided with 0.2 ml of distilled water. […] The concentration of the peptide in the combined composition was 3.3 mM. […] The pH values are as follows: Extensive testing of individual peptides of 2-4 amino acid units as could reasonably be obtained or synthesized was done. The tests were carried out under the same conditions as Sets I-IV. The salivary sediment was present in an amount of 16.7% (v/v), glucose 2.8 mM and the peptide 3.3 mM in the final composition. Duplicate runs without peptide were run parallel to the others as a double check. […] An effective pH rise factor begins to reverse the fall within the first hour. Measurement continues through the fourth hour.

Row | Structure (SMILES) | pH rising to | pH drop to
1 | N=C(N)NCCC[C@H](N)C(=O)NCC(=O)O [Arg-Gly] (H-Arg-Gly-OH) | 7-7.9 | about 5.5
2 | CC(C)C[C@H](NC(=O)[C@@H](N)CCCNC(=N)N)C(=O)O [Arg-Leu] (H-Arg-Leu-OH) | 7-8 | 5.5
3 | N=C(N)NCCC[C@H](N)C(=O)N[C@@H](CCCCN)C(=O)O [Arg-Lys] (H-Arg-Lys-OH) | 7.2-8 | 6-6.7
4 | N=C(N)NCCC[C@H](N)C(=O)N[C@@H](CO)C(=O)O [Arg-Ser] (H-Arg-Ser-OH) | about 7 | about 5.5
5 | N=C(N)NCCC[C@H](NC(=O)[C@@H](N)CC(=O)O)C(=O)O [Asp-Arg] (H-Asp-Arg-OH) | ~6.8 | about 5.4
6 | N=C(N)NCCC[C@H](NC(=O)CN)C(=O)O [Gly-Arg] (H-Gly-Arg-OH) | 7.5 | about 5.2
7 | NCC(=O)NCC(=O)NCC(=O)O [Gly-Gly-Gly, reference compound] (H-Gly-Gly-Gly-OH) | no significant pH rise | –
8 | NCC(=O)NCC(=O)N1CCC[C@H]1C(=O)O [Gly-Gly-Pro, reference compound] (H-Gly-Gly-Pro-OH) | no significant pH rise | –
9 | CSCC[C@H](NC(=O)[C@@H](N)Cc1c[nH]cn1)C(=O)O [His-Meth, reference compound] (H-His-Met-OH) | ~5.5 | about 5.4
10 | NCCCC[C@H](N)C(=O)N[C@@H](CO)C(=O)O [Lys-Ser, reference compound] | ~5.6 | about 5.3
11 | CSCC[C@H](N)C(=O)N1CCC[C@H]1C(=O)O [Meth-Pro, reference compound] (H-Met-Pro-OH) | no significant pH rise | –
12 | N=C(N)NCCC[C@H](NC(=O)[C@@H](N)Cc1ccccc1)C(=O)O [Phe-Arg] (H-Phe-Arg-OH) | – | about 5
13 | O=C(O)[C@@H]1CCCN1C(=O)[C@@H]1CCCN1C(=O)[C@@H]1CCCN1 [Pro-Pro-Pro, reference compound] (H-Pro-Pro-Pro-OH) | no significant pH rise | –
